In PubChem BioAssay AID1347073 (National Center for Advancing Translational Sciences (NCATS), 2019):
Out of some 45,000 compounds screened, about 200 (0.44%) were called active. Roughly 7% stayed inconclusive and do not appear here. Calls follow the shape of the dose curve; as a rule, active = well fitted activation curve with a large enough effect; inconclusive = small, poorly fitted or top-dose-only effect; inactive = no such curve, though single readings can be large or run the other way. The list shows a part of the results.

Assay: qHTS of TDP-43 Inhibitors: NCGC Sytravon Library Screen; also: 0% is about no effect; nearly all actives have a fitted effect of over 55% in size
Details: yeast TDP-43 toxicity rescue, BacTiter-Glo growth, 24 h; series mostly up to 46.1 µM; growth rescue (activation): at the top concentration
Procedure, shortened: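 TDP-43-expressing yeast, pregrown in raffinose, seeded at OD600 0.02 in galactose medium with compound for 24 hr at 30 deg C. Growth read by BacTiter-Glo luminescence, so rescue of toxicity appears as activation.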

Q: With COc1ccc(N2Cc3ccccc3C2=NC(=O)c2cncc(Br)c2)cc1 as the compound, how does the “growth rescue (activation)” value read?
A: inactive: 2.96%

Q: For c1ccc2c(c1)oc1c(-c3cccc4nccn34)cccc12, which “growth rescue (activation)” value is on record?
A: inactive: 8.79%

Q: Which “growth rescue (activation)” value does the source give for CCCCCCCCCCOC(=O)Cn1c(COc2ccccc2C)[n+](C)c2ccccc21 here?
A: inactive: -91.3%

Q: Which “growth rescue (activation)” value does the source give for O=C(CNC(=O)c1ccc(Cl)cc1)Nc1ccc(S(=O)(=O)Nc2ncccn2)cc1 here?
A: inactive: 2.38%

Q: For Cc1ccc(NC(=O)c2oc3ccccc3c2COC(C)C)cc1S(=O)(=O)N1CCOCC1, which “growth rescue (activation)” value is on record?
A: inactive: 27.9%

Q: Which “growth rescue (activation)” value does the source give for CC(=O)Oc1ccc(-c2ccc(C(=O)NCCc3ccc(S(N)(=O)=O)cc3)cc2)cc1 here?
A: inactive: -5.04%

Q: With Cc1cc(C)n2nc(C(=O)N/N=C/c3ccc(Cl)cc3)nc2n1 as the compound, how does the “growth rescue (activation)” value read?
A: inactive: 7.29%

Q: With CCC(C(=O)NC1CCCCC1)N(Cc1cccs1)C(=O)CCC(=O)Nc1cc(C)on1 (stereo not drawn) as the compound, how does the “growth rescue (activation)” value read?
A: inactive: 2.74%

Q: For CCN(CC)S(=O)(=O)c1cccc(C(=O)NC(C(=O)NCCc2ccccn2)C(C)C)c1 (stereo not drawn), which “growth rescue (activation)” value is on record?
A: inactive: -4.22%

Q: With CC(=O)Nc1ccccc1C(=O)C(=O)Nc1cccc(C(=O)NC2CC2)c1 as the compound, how does the “growth rescue (activation)” value read?
A: inactive: 4.95%

Q: For O=C(c1ccco1)N1CCN(c2c([N+](=O)[O-])nn(-c3ccc(Cl)cc3)[n+]2[O-])CC1, which “growth rescue (activation)” value is on record?
A: inactive: 16.1%

Q: With OC(CCN1CCOCC1)c1ccccc1 (stereo not drawn) as the compound, how does the “growth rescue (activation)” value read?
A: inactive: 0.876%

Q: With CCNC(=O)C1(C)CCCN(C(=O)c2ccccc2Br)C1 (stereo not drawn) as the compound, how does the “growth rescue (activation)” value read?
A: inactive: -1.49%

Q: Which “growth rescue (activation)” value does the source give for O=C(COc1ccc(Cl)cc1Cl)NN=C1c2ccccc2-c2ccccc21 here?
A: inactive: 9.77%

Q: With C/C(=N\NC(=O)C1COc2ccccc2O1)c1cc2ccccc2o1 (stereo not drawn) as the compound, how does the “growth rescue (activation)” value read?
A: inactive: 4.42%

Q: With COc1ccc(NC(=O)[C@@H]2CCCN2S(=O)(=O)c2ccc(Cl)cc2)cc1 as the compound, how does the “growth rescue (activation)” value read?
A: inactive: 28%

Q: Which “growth rescue (activation)” value does the source give for CC(OC(=O)CCc1nc2ccccc2c(=O)[nH]1)C(=O)Nc1cccc(C(F)(F)F)c1 (stereo not drawn) here?
A: inactive: 10.4%

Q: With O=C(CSc1ccc(Cl)cc1)NC1CCCc2ccccc21 (stereo not drawn) as the compound, how does the “growth rescue (activation)” value read?
A: inactive: 8.01%

Q: With Cc1cccc(OC(C)C(=O)OCC(=O)Nc2sccc2C(N)=O)c1 (stereo not drawn) as the compound, how does the “growth rescue (activation)” value read?
A: inactive: 21%

Q: For CCOC(=O)C(Cc1ccc(OC)c([N+](=O)[O-])c1)NC(=O)CCC(=O)Nc1ccc(OC)cc1 (stereo not drawn), which “growth rescue (activation)” value is on record?
A: inactive: -21%

Q: Which “growth rescue (activation)” value does the source give for FC(F)Oc1ccc(NC(=S)NNc2ccnc3cc(Cl)ccc23)cc1 here?
A: inactive: 16.9%

Q: With COc1ccc(-c2cc(C(=O)NCC3CCCO3)c3ccccc3n2)c(OC)c1 (stereo not drawn) as the compound, how does the “growth rescue (activation)” value read?
A: inactive: 6.01%

Q: For CCS(=O)(=O)NCC(c1cccnc1)N1CCN(c2ccccc2F)CC1 (stereo not drawn), which “growth rescue (activation)” value is on record?
A: inactive: 23.1%

Q: For Cc1nc(NC(=O)CCC(=O)O)sc1C(=O)N(C)C, which “growth rescue (activation)” value is on record?
A: inactive: -14.6%

Q: With Cc1ncc(CN2CCC(n3nccc3NC(=O)c3ccccc3)CC2)s1 as the compound, how does the “growth rescue (activation)” value read?
A: inactive: 11.5%

Q: For Cc1cc(C)n2cc(CSc3nnnn3C)nc2n1, which “growth rescue (activation)” value is on record?
A: inactive: -18.9%

Q: With CCOc1cccc(C(=O)Nc2ccccc2C(=O)N2CCOCC2)c1 as the compound, how does the “growth rescue (activation)” value read?
A: inactive: -1.15%

Q: Which “growth rescue (activation)” value does the source give for CC/C(C)=N/Nc1nc2c(c(=O)[nH]c(=O)n2C)n1CCc1ccccc1 here?
A: inactive: 7.53%

Q: Which “growth rescue (activation)” value does the source give for Cc1ccc(-n2[nH]c(C)c(C=NCc3ccncc3)c2=O)cc1 here?
A: inactive: -23.4%

Q: Which “growth rescue (activation)” value does the source give for COc1ccc2c(c1)-c1c(sn(-c3ccccc3)c1=S)C(C)(C)N2 here?
A: inactive: 26.5%

Q: For CCOC(=O)NC1(C(F)(F)F)NC(=O)N(c2ccc(F)cc2)C1=O (stereo not drawn), which “growth rescue (activation)” value is on record?
A: inactive: 0.513%

Q: With COc1ccc(NC(=O)CC2CCCC2)cc1OC as the compound, how does the “growth rescue (activation)” value read?
A: inactive: 12.7%

Q: For CCOC(=O)c1c(NC(=O)CSc2nc3nc(C)cc(C)n3n2)sc(CC)c1C, which “growth rescue (activation)” value is on record?
A: inactive: 5%

Q: For CSc1ccc(/C=C(\NC(=O)c2ccc(C)cc2)C(=O)Nc2cccc(C)c2)cc1, which “growth rescue (activation)” value is on record?
A: inactive: -1.23%

Q: For COc1cccc(/C=N/NC(=O)CCNc2n[nH]c(=O)[nH]c2=O)c1OC, which “growth rescue (activation)” value is on record?
A: inactive: 2.74%

Q: With C=C1C(C(=O)Nc2ccc(OCC)cc2)C1C(=O)Nc1ccc(OCC)cc1 (stereo not drawn) as the compound, how does the “growth rescue (activation)” value read?
A: inactive: -1.15%

Q: With COc1ccc(/C=N/Nc2nc(=O)[nH]nc2C)cc1OC as the compound, how does the “growth rescue (activation)” value read?
A: inactive: 6.16%

Q: For CC(C)c1ccc(OCC(=O)N(c2ccccn2)C2CCCCC2)cc1, which “growth rescue (activation)” value is on record?
A: inactive: 2.6%

Q: With CC(C)(C)NS(=O)(=O)c1ccc(NC(=O)C2CCCO2)cc1 (stereo not drawn) as the compound, how does the “growth rescue (activation)” value read?
A: inactive: -5.25%

Q: For CCc1nc2ccc(C(=O)NCCCN3CCCC3=O)cn2c1N(C)C(=O)COc1ccccc1, which “growth rescue (activation)” value is on record?
A: inactive: 0.0484%

Q: For CCCCC(=O)NCc1ccc(F)cc1, which “growth rescue (activation)” value is on record?
A: inactive: 12.5%

Q: With CCc1nc2ccc(C(=O)Nc3cc(-c4ccccc4)ccc3OC)cn2c1N(C)Cc1ccc(Cl)cc1 as the compound, how does the “growth rescue (activation)” value read?
A: inactive: -45.2%

Q: Which “growth rescue (activation)” value does the source give for CCC(C)c1ccc(NC(=S)NC2CCN(Cc3ccccc3)CC2)cc1 (stereo not drawn) here?
A: inactive: -8.7%

Q: Which “growth rescue (activation)” value does the source give for C=CCOc1cccc(/C=N/NC(=O)C(OC)c2ccccc2)c1 (stereo not drawn) here?
A: inactive: 21.6%

Q: With O=C(N/N=C1\C2CN3CCN(C2)CC1(c1ccccc1)C3)Nc1ccccc1 as the compound, how does the “growth rescue (activation)” value read?
A: inactive: 4.05%

Q: With CCN(CC)C(=O)c1cccc(-c2csc(C(C)(O)c3cccc(F)c3)n2)c1 (stereo not drawn) as the compound, how does the “growth rescue (activation)” value read?
A: inactive: 12.9%

Q: With c1ccc2c(c1)[nH]c1c(N3CCC4(CC3)OCCO4)ncnc12 as the compound, how does the “growth rescue (activation)” value read?
A: inactive: 8.59%

Q: For CCOC(=O)/C(Sc1nc(-c2ccccc2)cc(-c2ccccc2)c1C#N)=C(\C)O, which “growth rescue (activation)” value is on record?
A: inactive: -4.33%

Q: Which “growth rescue (activation)” value does the source give for Cc1cc(C[n+]2cc(Cl)ccc2N)c2ncccc2c1 here?
A: inactive: 1.03%

Q: For CCCn1cnc2cc(NC(=O)c3cc(OC)c(OC)c(OC)c3)ccc21, which “growth rescue (activation)” value is on record?
A: inactive: -4.49%

Q: Which “growth rescue (activation)” value does the source give for Cc1cc(S(=O)(=O)N2CCOCC2)ccc1OCC(=O)Nc1cccc(C(F)(F)F)c1 here?
A: inactive: 2.82%

Q: Which “growth rescue (activation)” value does the source give for CC(C)C(NS(=O)(=O)c1c(Cl)cccc1Cl)C(=O)OCC(=O)c1c[nH]c2ccccc12 (stereo not drawn) here?
A: inactive: -9%

Q: Which “growth rescue (activation)” value does the source give for COc1cccc(-c2cccc(NC(=O)C3CCN(C4CCC4)CC3)c2)c1 here?
A: inactive: 12.4%
